# Hit rate of the full screen: of about 7,900 compounds, about 400 (5.1%) showed an effect of 50% or more. Some of the results follow.
# Biological target: Parkinson's disease protein 7 (PARK7/DJ1) (human, UniProt Q99497)
# Experiment: primary screen, percent inhibition; read as competition with a fluorescent probe by fluorescence polarization; higher = more effect of the substance
# Conditions: 100 µM
# Method in brief: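 Covalent fragments at 100 μM final were incubated 2 h with 0.2 μM PARK7, then 20 nM probe JYQ-107 added for a further 2 h. Fluorescence polarization read at 480/520 nm; relative FP loss versus reference controls gave remaining enzyme activity.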
# Chain of Parkinson's disease protein 7 (PARK7/DJ1) (Q99497 whole entry, looked up): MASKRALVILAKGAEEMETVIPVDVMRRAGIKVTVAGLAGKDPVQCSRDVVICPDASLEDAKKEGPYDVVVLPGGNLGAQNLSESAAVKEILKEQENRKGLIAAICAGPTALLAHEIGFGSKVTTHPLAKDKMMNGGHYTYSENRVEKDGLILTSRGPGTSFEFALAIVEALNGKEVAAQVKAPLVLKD
row,Compound,Inhibition %
1,O=C(CCl)c1cscn1,101%
2,O=C(CCCl)N1CCN(c2ccc(F)cc2)CC1,6.06%
3,CC1CCc2c(sc(NC(=O)CCl)c2C(N)=O)C1 (stereo not drawn),5.01%
4,C=CC(=O)N1CCCC(NS(C)(=O)=O)C1 (stereo not drawn),7.88%
5,COc1ccc(C2NCC(CCl)O2)c(OC)c1 (stereo not drawn),-0.766%
6,C=CC(=O)N1CCN(c2ncns2)CC1,8.81%
7,CS(=O)(=O)C(C#N)=Cc1ccc(-c2ccccc2F)o1,5.46%
8,O=C(CCl)N1c2ccccc2CCc2ccccc21,61%
9,CCC1c2ccsc2CCN1C(=O)C=Cc1cnn(C)c1 (stereo not drawn),10.2%
10,CNc1nc(SC2CC(C)OC2=O)nc2ccccc12 (stereo not drawn),3.03%
11,Cc1ccc(C=C(C#N)C(=O)NCc2ccco2)cc1F,4.94%
12,Cc1ccc(NC(=O)CCl)c(C)c1,-1.64%
13,O=C(CCl)NCC1CCCO1 (stereo not drawn),5.15%
14,O=C(CCl)NCCc1ccc(Cl)cc1,41.2%
15,N#CC(=Cc1cccc(F)c1F)C(=O)NCC1CCCO1 (stereo not drawn),9.53%
16,OB(O)c1ccc(-c2ccccc2)cc1F,24.2%
17,C=CC(=O)N1CCOc2cc(F)ccc2C1,7.81%
18,Cc1ccnc(NC(=O)CN2C(=O)CCC2=O)c1,-0.475%
19,N#Cc1cc(Cl)c2ccccc2n1,2.16%
20,C=CC(=O)NCc1nc(C2CC2)cs1,9.27%
21,O=C(CCl)Nc1ncc(Cc2ccccc2Cl)s1,1.2%

row,Compound,Inhibition %
1,CC1CCCN(C(=O)C=Cc2ccnn2C)C1CN.Cl (stereo not drawn),27.8%
2,O=S(=O)(C=Cc1ccccc1)NC1CCCn2ncnc21 (stereo not drawn),12.3%
3,CC(C)Cn1c(-c2ncccn2)noc1=O,13.6%
4,COc1ccc(COCC2CO2)cc1 (stereo not drawn),6.22%
5,C=CC(=O)N1Cc2ccc(Cl)cc2C1,3.47%
6,C=CC(=O)Nc1ccn(CC(F)F)n1,6.45%
7,N#Cc1c(NC(=O)c2cncc(F)c2)nc2n1CCS2,7.25%
8,Cc1cc(Cl)cnc1C#N,2.43%
9,CO[C@H]1C[C@@H](CN(C)C(=O)c2c[nH]c(C#N)c2)N(C)C1,8.24%
10,N#CC(=Cc1cccc2ccccc12)C(=O)NC1CC1,9.24%
11,Cc1ccccc1CN1CCCN(C(=O)CCl)CC1.Cl,26.4%
12,C=CC(=O)Nc1cn(C)nc1C(C)C,8.9%
13,Cl.Cl.NC1CCN(C2CCOC2=O)CC1 (stereo not drawn),5.74%
14,CC1Cc2ccccc2N1C(=O)Cn1cnc(C#N)n1 (stereo not drawn),5.82%
15,C=CC(=O)N1CC2(CCOCC2)C1,23%
16,C1COCCN1.N#Cc1c(C(F)(F)F)cc(=O)[nH]c1S,9.53%
17,O=S1(=O)CCCN1c1cccc(NCc2cccc(B(O)O)c2)c1,6.59%
18,C#Cc1ccc(C=C(C#N)C(=O)Nc2ccncc2)cc1,73.3%
19,C=CC(=O)NCCN(C)C1CCCCC1,10.8%
20,CCC1CN(S(=O)(=O)c2ccc(S(=O)(=O)F)cc2)C(C)CO1 (stereo not drawn),13.4%
21,CC1(C)OB(c2cnc(N)nc2)OC1(C)C,5.6%

row,Compound,Inhibition %
1,C=C(Cl)CSc1nnc(N)s1,1.46%
2,O=C1OCCC1Sc1nnnn1-c1cccc(F)c1 (stereo not drawn),13.6%
3,CC1(C)OB(c2ccc(C(F)C(F)(F)F)cc2)OC1(C)C (stereo not drawn),3.09%
4,CC(=O)N1CCC(CCl)CC1,2.96%
5,C=CC(=O)NCc1nnc(C2CC2)o1,6.84%
6,CS(=O)(=O)OCC1CCCCCC1,17.5%
7,CC(NC(=O)CCl)c1ccc2c(c1)OCO2 (stereo not drawn),10.2%
8,Cc1ccc(S(=O)(=O)F)nn1,65.4%
9,COC(=O)c1ccc(Cl)c(S(=O)(=O)F)c1,9.08%
10,C=CC(=O)NCC1CCC2(COC(C)C2)O1 (stereo not drawn),2.62%
11,CCN(C(=O)Cn1c(S)nc2ccccc2c1=O)C1CC1,0.694%
12,Cc1nn(-c2ccccc2)c(N)c1SC#N,2.07%
13,C=CC(=O)NCCc1nc2c(s1)CCCC2,10.8%
14,C=CC(=O)N1CCCC(c2nnc3n2CCC3)C1 (stereo not drawn),5.59%
15,Cc1ccc2[nH]c3c(c2c1)CN(C(=O)n1ccnc1)CC3,67.1%
16,O=C1OCCC1N1CCN(C(=O)CC2CCCCC2)CC1 (stereo not drawn),13.6%
17,CN(C)CCOc1cccc(B2OC(C)(C)C(C)(C)O2)c1,5.32%
18,C=CCNC(=O)C(C#N)=Cc1ccccc1Cl,11.9%
19,CC(=O)Nc1ccc(C=C(C#N)c2nc(C)cs2)cc1,5.75%
20,COC(=O)c1cc(N)cc(B2OC(C)(C)C(C)(C)O2)c1C,10.6%
21,CC(=O)Nc1ccc(OCC2CO2)cc1 (stereo not drawn),9.41%

# Reference: article PMC9574860, “Chemical Toolkit for PARK7: Potent, Selective, and High-Throughput” (Journal of Medicinal Chemistry, 2022)
